Laboratory results reported in PubChem BioAssay AID2060497 (Molecular Pharmacology Branch, DTP, NCI, 2025).
Certain results were filed several times, with different values. The list is limited to them. The source may hold further records. The values listed for one entry repeat one measurement (runs, samples, wells, individuals or studies). Counts like (3×) say how often a value occurs here. Marks such as [2022-09] give the month of the run.

System: 317291-083-R-J1-PDC complex spheroids, viability
Assay: Anticancer human tumor 317291-083-R-J1-PDC patient-derived soft tissue sarcoma cell line growth inhibition [GQUAD]
Settings: for viability, T/C: stronger effect = lower value; for IC50: compound alone
Excerpt: DNA G-quadruplex Stabilizer Agents in Combinations in Complex Spheroids
A high-throughput screen of multi-cell type tumor spheroids was designed to identify active combinations of DNA G-quadruplex stabilizer agents and targeted small molecules. Complex spheroids include a stromal component modeled by human endothelial cells (HUVEC) and fibroblasts modeled by human mesenchymal stem cells (MSCs). The concentration ranges selected for each drug and investigational agent were based upon clinically achievable concentrations if the clinical Cmax of the agent was known.
Compounds. The drugs and investigational agents: pidnarulex (CX-5461; NSC782164), APTO-253 (NSC789042), BRACO-19 (NSC847499), peposertib (NSC802822), ceralasertib (NSC780249), elimusertib (NSC800525), camonsertib (NSC841442), AZD-1390 (NSC803789), olaparib (NSC753686), talazoparib (NSC767125), ART-558 (NSC835418), sotorasib (NSC818433), MRTX-1133 (NSC836407), SN-38 (NSC673596), topotecan (NSC609699), etoposide (NSC141540), doxorubicin (NSC123127), gemcitabine (NSC613327), 5-fluorouracil (NSC19893), paclitaxel (NSC125973), vemurafenib (NSC761431), panobinostat (NSC761190), R-306465 (JNJ-16241199; NSC773264), adavosertib (NSC754352), TP-3654 (NSC805149), carboplatin (NSC241240), KSQ-4279 (NSC840948), and staurosporine (NSC755774) were obtained from the National Cancer Institute (NCI) Developmental Therapeutics Program Chemical Repository (34). The FDA-approved anticancer drug set is available from the NCI Developmental Therapeutics Program. […] The stock solutions were prepared in dimethyl sulfoxide (DMSO, Sigma-Aldrich, St. Louis, MO, cat. D2650) at 800-fold the tested concentration and stored at -70 degrees C prior to their use. All drugs and investigational agents were tested over a range starting from a high concentration at or near the clinical Cmax and decreasing in half-log increments. If the clinical Cmax for an agent had not been determined, the highest concentration tested was 10 microM.
2.3 Cell Culture. All cells were maintained in an incubator at 37 degrees C and 5% CO2 with 95% humidity. The PDC lines were cultured according to standard operating procedures established by the NCI PDMR. All PDCs were thawed and cultured in Matrigel-coated flasks prepared with a working solution of 1X Ham's F-12 nutrient mix, without supplementation (Invitrogen, cat. 11765054), 100 U/mL penicillin-streptomycin (Invitrogen, cat. 15140122), and 2.5% Matrigel (Corning Inc., cat. 354248) for the first three passages. The 857933-349-R-J2-PDC line was cultured in 6C/Colon 1B media, which includes advanced DMEM/F-12 (Thermo Fisher Scientific, cat. 12634028), 10 mM HEPES (Thermo Fisher Scientific, cat. 15630080), 1X GlutaMAX supplement (Thermo Fisher Scientific, cat. 35050061), 0.1 mg/mL primocin (InvivoGen, cat. ant-pm-2), 10% defined fetal bovine serum, heat inactivated (HyClone Laboratories Inc., cat. SH30070.03HI), 50% L-WRN conditioned media (ATCC, cat. CRL-3276), 1.25 mM N-Acetyl-L-cysteine (Sigma-Aldrich, cat. A9165), 10 mM nicotinamide (Sigma-Aldrich, cat. N0636), 1X B-27 supplement (Thermo Fisher Scientific, cat. 17504044), 1X N-2 supplement (Thermo Fisher Scientific, cat. 17502048), 10 microM Y-27632 dihydrochloride (Tocris Bioscience, cat. 1254), and 50 ng/mL human EGF recombinant protein (Thermo Fisher Scientific, cat. PHG0311). The 485176-168-R4-J1-PDC line was cultured in Panc media, which includes all 6C/Colon 1B media components plus 100 ng/mL human FGF-10 (Thermo Fisher Scientific, cat. 100-26), 500 nM SB-431542 (Selleckchem, cat. S1067), and gastrin (Tocris, cat. 3006).
[…]
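Also: spheroids exposed to compounds for one week before readout.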
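For viability, T/C in this document: percent viability relative to DMSO vehicle wells taken as 100%.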

| Compound | viability, T/C (compound alone 0.316 µM) | viability, T/C (compound alone 3.16 µM) | viability, T/C (compound alone 10 µM) | IC50 (run of 02/20/2024) | viability, T/C (compound alone 0.0316 µM) | viability, T/C (compound alone 1 µM) | IC50 (run of 02/26/2024) | viability, T/C (compound alone 0.1 µM) |
| --- | --- | --- | --- | --- | --- | --- | --- | --- |
| Cc1cnc(CNC(=O)c2c(=O)c3ccc(N4CCCN(C)CC4)nc3n3c2sc2ccccc23)cn1 | 49.6, 60, 62.4, 72.8, 42, 41, 36.4, 50.5, 46.4, 38.9, 45.3, 50.8% | 16.3, 26.9, 45.4, 22.1, 24, 16.6, 13.1, 24.1, 19.6, 14.5, 23.5, 20.2% | 20.6 (2×), 15.7, 29.7, 30.5, 11.2, 0.92, 31.6, 48.6, 12.1, 0.57, 27.5% | 281, 485, 625, 586, 268, 185, 197, 291, 225, 177, 271, 306 nM | – | – | – | – |
| CN(C)c1ccc(Nc2c3ccc(NC(=O)CCN4CCCC4)cc3nc3cc(NC(=O)CCN4CCCC4)ccc23)cc1 | 77, 76.3, 85.3, 90.9, 82.1, 91, 58.3, 62.9, 83.7, 49.4, 86.3, 97.4% | 31.1, 4.95, 53.6, 32.7, 40.5, 39.4, 6.2, 3.51, 34, 2.62, 33.3, 41.7% | – | – | 76.3, 96.9, 98.2, 109 (2×), 108, 92.4 (2×), 101, 100, 113% (2×) | 48.8, 24.8, 68.1, 52.8, 54.6, 46.5, 38.9, 36, 65.3, 53.5, 58.3, 59% | 599 nM and 1.18 µM, 569 nM, 3.09 µM, 1.35 µM, 1.59 µM, 1.13 µM, 542 nM, 559 nM, 1.74 µM, 1.51 µM, 1.85 µM [2024-02] | – |
| Cc1[nH]c2ccc(F)cc2c1-c1nc2c3cccnc3c3ncccc3c2[nH]1 | 95.8, 106 (2×), 99.8, 105 (2×), 113, 96.4, 79.4, 76.5, 73.8, 65.7% | 96, 90.4, 93.8, 89.5, 90.3, 99.9, 80.9, 95.7, 42.8, 29.6, 31.6% (2×) | 87.4, 90.7, 66.3, 75.1, 90.2, 86.4, 81.8, 99.3, 52.6, 49.1, 61.8, 56.5% | – | 105, 92.5 (2×), 97.8, 89.9, 112 (2×), 111, 95.5, 131, 103, 107% | 97.1, 105 (2×), 103, 97.3, 111 (2×), 96.5, 67.5, 56.6, 58.4, 65.3% | 5.6, 1.26, 2.41, 2.33 µM | 122, 105, 110 (2×), 106 (2×), 103 (2×), 99.7, 96.6, 93.5, 98.2% |
